# In PMC4336329 (PLoS ONE, 2015):
# The whole screen tested about 310,000 compounds, of which about 2,200 (0.71%) showed an effect of 50% or more. The effect is printed as a negative number. The list shows a part of the results.
# Target: human ether-à-go-go-related gene (hERG) potassium channel (human, UniProt Q12809)
# Assay: primary screen, population patch clamp on CHO cells stably expressing hERG
# human ether-à-go-go-related gene (hERG) potassium channel, sequence (Q12809 whole entry, looked up): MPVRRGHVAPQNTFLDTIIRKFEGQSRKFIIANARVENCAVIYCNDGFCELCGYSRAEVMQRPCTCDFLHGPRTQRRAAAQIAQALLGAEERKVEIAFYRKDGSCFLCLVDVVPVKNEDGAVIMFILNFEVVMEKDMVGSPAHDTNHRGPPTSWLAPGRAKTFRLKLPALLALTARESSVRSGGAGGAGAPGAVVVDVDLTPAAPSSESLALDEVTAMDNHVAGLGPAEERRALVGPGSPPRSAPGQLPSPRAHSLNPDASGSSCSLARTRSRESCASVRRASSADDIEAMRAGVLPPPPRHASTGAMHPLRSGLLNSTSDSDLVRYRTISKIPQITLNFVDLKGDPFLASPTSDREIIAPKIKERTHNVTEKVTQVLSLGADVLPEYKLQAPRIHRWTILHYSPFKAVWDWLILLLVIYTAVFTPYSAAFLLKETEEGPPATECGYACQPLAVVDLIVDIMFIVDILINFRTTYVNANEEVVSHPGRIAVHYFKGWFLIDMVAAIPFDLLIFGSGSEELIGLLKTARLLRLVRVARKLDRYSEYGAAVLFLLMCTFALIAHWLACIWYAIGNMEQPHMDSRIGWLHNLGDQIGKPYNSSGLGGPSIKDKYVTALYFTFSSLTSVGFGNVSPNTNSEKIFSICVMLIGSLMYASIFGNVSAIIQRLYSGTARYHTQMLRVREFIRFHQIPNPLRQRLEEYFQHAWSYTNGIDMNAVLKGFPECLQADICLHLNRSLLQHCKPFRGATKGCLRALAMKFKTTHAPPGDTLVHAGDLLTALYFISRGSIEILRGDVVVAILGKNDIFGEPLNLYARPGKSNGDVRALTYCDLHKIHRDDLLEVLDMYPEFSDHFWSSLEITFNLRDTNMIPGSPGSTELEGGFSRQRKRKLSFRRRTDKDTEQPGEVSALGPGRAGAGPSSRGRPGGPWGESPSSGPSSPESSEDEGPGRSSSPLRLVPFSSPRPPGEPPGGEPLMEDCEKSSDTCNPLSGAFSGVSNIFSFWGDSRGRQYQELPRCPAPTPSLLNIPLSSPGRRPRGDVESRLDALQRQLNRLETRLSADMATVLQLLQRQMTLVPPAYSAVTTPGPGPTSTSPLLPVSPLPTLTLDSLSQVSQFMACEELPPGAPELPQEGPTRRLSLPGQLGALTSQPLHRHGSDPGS
row,SMILES,"hERG current change (%, negative = inhibition) at 1uM [%]"
1,COc1ccc(-c2csc(NCCc3nc4cc(C(=O)NCCCO)ccc4n3Cc3ccc(C)cc3)n2)cc1,12.3
2,N#CCSc1nnc2ccc3ccccc3n12,5.14
3,Cl.N=C(N)SCc1ccccc1Cl,21.8
4,O=S(=O)(c1ccc(F)cc1)N1CCN(C(=S)NCC2CCCO2)CC1 (stereo not shown),-3.72
5,COc1ccc(/C=N/NC(=O)c2sc3nc(C)cc(C)c3c2N)cc1,14.9
6,CS(=O)(=O)c1ccc2nc(NC(=O)CN3CCN(Cc4ccccc4)CC3)sc2c1,2.22
7,CCC(CC)C(=O)NC12CC3CC(CC(C3)C1)C2,9.3
8,Fc1ccccc1-c1cc2ncccc2cn1,10.8
9,CCC1CCCCN1C(=O)c1cccc(S(=O)(=O)Nc2cc(C(F)(F)F)ccc2Cl)c1 (stereo not shown),5.63
10,CC(OC(=O)c1ccccc1NCCO)C(=O)NCC(=O)Nc1ccc(F)c(F)c1F (stereo not shown),8.93
11,COc1ccc(Cl)cc1NC(=O)COc1cccc(-n2cnnn2)c1,11.3
12,Cc1cccc(S(=O)(=O)CC(=O)Nc2nc(-c3ccccc3)cs2)c1,3.09
13,CC(C)(CO)Nc1ccc([N+](=O)[O-])cc1[N+](=O)[O-],-4.99
14,Cn1c(Cn2nnc3ccccc32)nnc1SCC(=O)N1c2ccccc2Sc2ccccc21,-1.26
15,CCNc1ccc(C2(O)C(=O)c3ccccc3C2=O)cc1,8.01
16,O=C1CCC/C(=N\NC(=O)c2ccc(CSc3cccc4cccnc34)cc2)C1,14.8
17,CCN(C(=O)c1cc(S(=O)(=O)N2CCCCC2)c[nH]1)c1ccc(OC)cc1,6.02
18,NNC(=O)c1nc(Cl)c(Cl)c(N)c1Cl,11.6
19,O=C(COc1ccccc1[N+](=O)[O-])OCC(=O)N1CCC(Cc2ccccc2)CC1,14.2
20,N#Cc1c(N2CCSCC2)nsc1-c1ccccc1Cl,10.3
21,O=C(c1cccc(F)c1)N(Cc1nc2ccccc2c(=O)[nH]1)C1CCCC1,5.34
22,CC(C)(C)C(=O)COc1ccccc1[N+](=O)[O-],11.1
23,COc1nc(OC)nc(Oc2ccc([N+](=O)[O-])cc2Cl)n1,13.7
24,O=C1Nc2ccccc2/C1=C\c1cccn1-c1ccc(OC(F)(F)F)cc1,10.1
25,Cc1nnc(SCC(=O)N2CCc3ccccc3C2)n1-c1ccccc1,-7.02
26,O=c1[nH]c(=S)n(Cc2ccc(F)cc2)c(O)c1C=NCc1ccc2c(c1)OCO2,17.2
27,O=c1[nH]c(=O)n(-c2cccc3ccccc23)c(O)c1/C=N/N1CCCCC1c1cccnc1 (stereo not shown),15
28,COc1cccc(CSc2nnc(CSc3nc4nc(C)cc(C)n4n3)s2)c1,-6.11

row,SMILES,"hERG current change (%, negative = inhibition) at 1uM [%]"
1,Cc1ccc(C(=O)NNC(=O)c2csc(N3CCOCC3)n2)s1,-4.52
2,C[C@H]1NC(=O)[C@@]2(C)[C@@H](c3ccccc3)[C@H]3COc4ccccc4[C@H]3N2C1=O,9.35
3,CCC(C)(C)NC(=O)C(c1ccc(C)cc1)N(CC1CCCO1)C(=O)CNC(=O)c1cccs1 (stereo not shown),9.18
4,Cn1c(SCC(=O)NCCc2ccc(S(N)(=O)=O)cc2)nc2ccccc2c1=O,6.42
5,CCCn1c(SCC(=O)NC2CCCCC2)nnc1-c1ccco1,7
6,CCn1c(SCC(=O)Nc2cc(C(C)(C)C)nn2-c2ccccc2)nnc1-c1cccs1,0.593
7,Cn1c(CCNC(=O)C2CCCCC2)nc2cc([N+](=O)[O-])ccc21,-23
8,O=c1[nH]c(-c2ccccc2O)nc2c1CCCC2,10.7
9,O=C(COC(=O)c1ccc(O)cc1)Nc1cc(S(=O)(=O)N2CCOCC2)ccc1Cl,5.85
10,CC1CCCCN1S(=O)(=O)c1ccccc1[N+](=O)[O-] (stereo not shown),22.5
11,COc1ccc(CCNC(=O)CNC(=O)c2nn(-c3ccc(OC)c(OC)c3)c(=O)c3ccccc23)cc1OC,8.54
12,O=C(c1cc(-c2cccs2)nc2ccccc12)N1CCN(S(=O)(=O)c2ccccc2)CC1,-9.43
13,COc1ccc(CC(=O)OCC(=O)NCc2ccc(Cl)cc2)cc1,16.4
14,COc1ccc(CCN2CC(C(=O)NCc3nc4ccccc4n3C)CCC2=O)cc1 (stereo not shown),5.67
15,COCCCNC1CS(=O)(=O)CC1O.Cl (stereo not shown),20.5
16,CC(C)[C@H](NC(=O)N1c2ccccc2NC(=O)[C@@H]1C(C)C)C(=O)N[C@@H](Cc1ccccc1)C(=O)O,14.1
17,CCOC(=O)c1ccccc1NC(=O)Cc1ccccc1OC,5.07
18,CN1CCN(S(=O)(=O)c2ccc(NC(=O)c3csc4ccccc34)cc2)CC1,-2.14
19,CN(c1ccccc1)S(=O)(=O)c1cccc(NC(=O)C2CC(=O)N(Cc3ccccc3)C2)c1 (stereo not shown),-3.33
20,Cc1ccc(-n2ncc3c(SCC(=O)NNC(=O)c4ccco4)ncnc32)cc1,12.1
21,COCCNc1nnc(SCC(=O)NNC(=O)c2ccccc2)s1,16.3
22,Cc1ccc(C(=O)NCCS(=O)(=O)N2CCN(c3ccccc3F)CC2)cc1[N+](=O)[O-],20
23,C/C(CC(=O)NCc1ccc(F)cc1)=N\NC(N)=S,11.6
24,OC(COc1ccc2c(c1)OCO2)CN1CCCCC1 (stereo not shown),13.8
25,Cc1ccc(S(=O)(=O)N2CCCC2CO)cc1 (stereo not shown),9.64
26,O=C(NCc1nnc(SCC(=O)N2CCc3ccccc32)o1)c1cccs1,0.714
27,CC1CCCN(C(=O)c2cc(-c3ccco3)nc3ccccc23)C1 (stereo not shown),1.33
